According to patent publication US20250171558A1 (published 2025):

Target: T1, human FcγRIIB (human, UniProt P31994 43-217)
T1 chain: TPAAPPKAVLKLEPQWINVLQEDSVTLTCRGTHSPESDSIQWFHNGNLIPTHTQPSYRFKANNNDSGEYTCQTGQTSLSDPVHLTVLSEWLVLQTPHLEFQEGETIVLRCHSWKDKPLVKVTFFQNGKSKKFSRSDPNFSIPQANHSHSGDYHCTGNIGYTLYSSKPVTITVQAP
Assay: SPR; human

B1: GAIE (protein)
chain: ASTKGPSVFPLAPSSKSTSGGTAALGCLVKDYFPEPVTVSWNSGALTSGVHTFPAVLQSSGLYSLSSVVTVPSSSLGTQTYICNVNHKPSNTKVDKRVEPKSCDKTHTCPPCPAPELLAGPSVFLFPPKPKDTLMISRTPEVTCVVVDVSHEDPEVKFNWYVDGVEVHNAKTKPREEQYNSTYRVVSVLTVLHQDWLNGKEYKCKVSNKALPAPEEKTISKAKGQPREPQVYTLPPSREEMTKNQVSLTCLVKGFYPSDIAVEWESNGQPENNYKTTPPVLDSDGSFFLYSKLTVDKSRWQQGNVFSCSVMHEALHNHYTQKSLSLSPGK
B1 gave a Kd of 1440 nM.
